About 120 (0.25%) of roughly 48,000 compounds were called active. Another 4% or so got no clear call; they are omitted. Calls come from the whole dose curve; as a rule, active = well fitted activation curve with a large enough effect; inconclusive = small, poorly fitted or top-dose-only effect, or another doubt; inactive = no such curve, though single readings can be large or run the other way. The list shows a part of the results.
Assay: Primary qHTS for Identification of Small Molecule Activators of Huntingtin-Antisense Promoter Activity; note: nearly all actives have a fitted effect of over 55% in size
Settings: HEK293 HTT-AS promoter firefly luciferase reporter (activity 0% = vehicle and -100% = no light), 24 h; series mostly up to 57.5 µM; activity change, positive = activation: at the top concentration
Method in brief: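 HEK293 Fluc reporter, 2,500 cells/well, 24 h pre-culture; cpds up to 57.5 uM final, 24 h 37 degrees C; Dual-Glo, 10 min RT; normalized vehicle = 0%, zero RLU = -100%.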

Activity change, positive = activation, inactive:
CCSc1ncc(Cl)c(C(=O)Nc2ccc(S(=O)(=O)N3CCC(C)CC3)cc2)n1 -18.1%
CC(=O)c1cccc(NC(=O)C2=CC(c3ccc4c(c3)OCO4)=NS(=O)(=O)N2C)c1 -17%
Cc1cccc(CNC(=O)C(=O)Nc2ccccc2C)c1 6.23%
CC1CCCCN1CCCNC(=O)c1[nH]c2ccccc2c1Sc1ccc(Cl)cc1 (stereo unspecified) -6.58%
COc1ccccc1CNC(=O)CCC1N=C2c3ccccc3N=C(SCC(N)=O)N2C1=O (stereo unspecified) -35.1%
Cc1ccc(CNC(=O)c2ccc(CSCc3ccccc3Cl)o2)cc1 -11%
Cc1ccc(S(=O)(=O)NCC(c2ccc(N(C)C)cc2)N2CCc3ccccc32)cc1C (stereo unspecified) -16.3%
Cc1cccc(C)c1NC(=O)CSc1nc2ncccc2o1 -5.44%
COc1ccc(Cn2c(CCC(=O)Nc3cccc(OC)c3)nc3cccnc32)cc1 -22%
CC(=O)N1CCc2cc(CNC(=O)Nc3cc(Cl)ccc3C)ccc21 -19.4%
CCc1ccc(CNC(=O)C2CCN(c3nc4ccccc4nc3C(F)(F)F)CC2)cc1 -13.1%
CCN1C(=O)c2ccccc2Sc2ccc(NC(=O)Nc3ccccc3OC)cc21 -39.4%
Cc1ccc(NC(=O)c2c(NC(=O)Cc3ccccc3)sc3c2CCC3)cc1 -26.1%
Cc1ccc(C)c(OCCn2cc(C(=O)c3cccs3)c3ccccc32)c1 -30.7%
CC(C)(C)CC(=O)OCC(=O)[C@@]1(O)CC[C@H]2[C@@H]3CCC4=CC(=O)C=C[C@]4(C)[C@H]3[C@@H](O)C[C@@]21C -26.1%
Cc1cccc(C(=O)N2CCc3cc(CNC(=O)c4ccc(Br)o4)ccc32)c1 -26.7%
O=[N+]([O-])c1ccc(S(=O)(=O)NCc2nc3cccnc3n2Cc2ccccc2Cl)cc1 -28.2%
COC(=O)c1cc(NC(=O)C2CCCN(S(=O)(=O)c3c(C)n[nH]c3C)C2)cc(C(=O)OC)c1 (stereo unspecified) -21.3%
COc1ccc(C)cc1NC(=O)Cn1c(=O)nc(-c2ccccc2F)c2cc(Cl)ccc21 1.97%
O=c1nc2c(-c3ccc(F)cc3Cl)n[nH]n2c2ccccc12 9.79%
COCc1cc(C)nc2sc(C(=O)Nc3ccc(OC(F)(F)F)cc3)c(N)c12 -7.96%
Cc1c(C(=O)OCC2CCCCC2)[nH]c2c1C(=O)CC(c1ccc(F)cc1)C2 (stereo unspecified) -11%
CCCCn1c(=N)c(S(=O)(=O)c2ccc(Cl)cc2)cc2c(=O)n3cccc(C)c3nc21 0.956%
CC(C)(C)OC(=O)N1CCC(c2c(C(=O)NCc3ccccc3)cnn2-c2ccccc2)CC1 -4.41%
CCc1ccc(CNC(=O)c2cc3c(=O)n(CC)c4ccccc4c3s2)cc1 3.93%
O=C(NC(=O)c1ccccc1)Nc1ccc(-n2nc(C(F)(F)F)cc2C(F)(F)F)cc1 14.4%
